SMILES strings stand for the structures. Out of some 48,000 compounds screened, about 1,200 (2.5%) were called active. About 2% were inconclusive and are not listed.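 How the source made its calls: active means activation of at least 60% and not above a set upper limit (about 1 call in 100 departs from these limits); inconclusive means activation of 40% to 60%, or above that upper limit; inactive means activation under 40%.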 The list shows a part of the results.

The values that follow come from PubChem BioAssay AID1346428 (National Center for Advancing Translational Sciences (NCATS), 2018).

Chain of UniProt O75388 (O75388 whole entry, looked up): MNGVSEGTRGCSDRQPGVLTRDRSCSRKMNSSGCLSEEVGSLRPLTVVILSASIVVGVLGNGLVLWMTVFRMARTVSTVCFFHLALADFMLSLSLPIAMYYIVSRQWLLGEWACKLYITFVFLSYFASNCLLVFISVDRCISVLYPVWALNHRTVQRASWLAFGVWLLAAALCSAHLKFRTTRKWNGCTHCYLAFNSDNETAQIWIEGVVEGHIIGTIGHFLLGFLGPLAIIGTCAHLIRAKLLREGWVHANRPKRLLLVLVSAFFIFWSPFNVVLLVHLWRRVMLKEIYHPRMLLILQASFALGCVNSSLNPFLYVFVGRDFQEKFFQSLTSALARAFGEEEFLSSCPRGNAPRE

The target of the assay is Probable G-protein coupled receptor 32 (Homo sapiens) (UniProt O75388). Put plainly: qHTS for Agonists of Human Resolvin D1 Receptor DRV1. Further: 0% is about no effect. The conditions noted are these: CHO-K1 GPR32 beta-arrestin PathHunter luminescence, 90 min; at 76.9 µM; stronger effect = higher value; zero percent set by DMSO-only wells. Summed up:
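Cells are plated overnight, treated with compounds in DMSO for 90 minutes at 37 °C, and developed with PathHunter detection reagent for 1 hour before luminescence is read; signal reflects beta-arrestin binding to GPR32 in engineered CHO-K1 cells.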
Take `CCN1C(=O)c2ccccc2S(=O)c2ccc(C(=O)NCc3ccc(C)cc3)cc21` (stereo unspecified): the activation is inactive: -3.43%. With `Cc1c(CNC2CCC(C)CC2)c(C(=O)O)c(C)n1Cc1ccccc1F` (stereo unspecified), the activation was inactive: -0.133%.

For `COc1ccc(-c2nc(SCC(=O)c3ccc(Br)cc3)n[nH]2)cc1`, the activation is active: 114%. In the case of `CCOc1ccccc1C1C(C(N)=O)=C(C)Nc2nc(-c3ccccc3Cl)nn21` (stereo unspecified), the activation is inactive: -25.1%. For `Cc1cccc(N2CC(c3nc4ccc(C)cc4[nH]3)CC2=O)c1` (stereo unspecified), the activation was inactive: -8.47%. With `CCC1CN(C(=O)Nc2ccccc2C(F)(F)F)c2ccccc2O1` (stereo unspecified), the activation is inactive: -27%. For the molecule `COc1ccc(/C=C(/C#N)c2nc(-c3cc4ccccc4oc3=O)cs2)cc1`, the activation was inactive: 8.78%.

In the case of `CCOc1ccc(NC(=O)CC2C(=O)N(c3ccc(C)cc3)C(=O)N2C2CCCCC2)cc1` (stereo unspecified), the activation was inactive: -7.32%. In the case of `O=C(NC1(C(F)(F)F)N=C(c2ccccc2)N(C2CCCCC2)C1=O)c1ccc(F)cc1` (stereo unspecified), the activation was inactive: 0.854%. Turning to `Cc1cc(C)n(CCc2nc3c4ccccc4nc(SCc4ccc(Cl)cc4)n3n2)n1`, the activation was inactive: -16.8%. Consider `C=CCSCC1Nc2cc(Cl)c(S(N)(=O)=O)cc2S(=O)(=O)N1` (stereo unspecified), for which the activation was inactive: -41.6%.

In the case of `Cn1ccc2cc(S(=O)(=O)N3CCCC(C(=O)NCc4ccc(F)cc4)C3)ccc21` (stereo unspecified), the activation is inactive: -4.32%. Next, `COC(=O)c1ccc(C2C=C(c3ccc(Cl)cc3)Nc3nc4ccccc4n32)cc1` (stereo unspecified): inactive: -8.11%. Next, `Cc1cc(O)c2c(O)c3c(O)cccc3cc2c1`: active: 108%; `CC(=O)Nc1ccc(NC(=O)c2cc3c(=O)n(Cc4cccnc4)ccc3nc2C)cc1`: inactive: -8.54%; `N#Cc1cccc(NC(=O)C2CCN(c3cnccn3)CC2)c1`: inactive: -6.89%.

For the molecule `O=C(CSc1nc(-c2ccc(F)cc2)nc2c1Cc1ccccc1O2)Nc1cccc(C(=O)O)c1`, the activation is inactive: -0.0865%. Consider `CCOc1ccccc1-c1noc(CCCC(=O)Nc2cccc(C(F)(F)F)c2)n1`, for which the activation was inactive: 10.8%. Take `CC1CCCCN1C(=O)c1ccc2c(c1)N(Cc1cccc(Cl)c1)C(=O)c1ccccc1S2=O` (stereo unspecified): the activation was inactive: -21.6%. For `CCCCNC(=O)c1cccc(-n2cnc3cccnc32)c1C`, the activation was inactive: 2.05%. In the case of `Cc1ccc(-n2nc(C(C)(C)C)cc2NC(=O)Nc2ccc(OCCN3CCOCC3)c3ccccc23)cc1`, the activation was inactive: 22%. Consider `Cc1cc(N(C)Cc2ccccc2)n2nc(-c3ccc(C(C)(C)C)cc3)nc2n1`, for which the activation was inactive: -40.1%. For the molecule `CCOc1ccc(-c2c(C)nn3c(C)c(C(=O)NCc4ccc(Cl)cc4)cnc23)cc1OCC`, the activation is inactive: -0.749%. For `CCc1ccc(-n2nc3cc(C)c(NC(=O)c4ccccc4C)cc3n2)cc1`, the activation is inactive: -45.1%. `CC1CCN(c2nc3c(-c4cccc(Br)c4)nnn3c3ccccc23)CC1`: the activation is inactive: -15.2%. The value for `COc1ccc(OCCn2nnc3sc4c(c3c2=O)CCC(C(C)(C)C)C4)cc1` (stereo unspecified) was inactive: -1.56%; that for `COc1ccc(CNC(=O)CCc2c(C)nn(-c3ccc(N4CCCCC4)nn3)c2C)cc1` was inactive: -16.8%; that for `CCCCCn1c(=O)[nH]c2cc(C(=O)NCCN(C)CCCC)ccc2c1=O` was inactive: 8.55%. For the molecule `CCC(NC(=O)Nc1cc(Cl)ccc1OC)c1c(-n2cccc2)sc2c1CCN(C)C2` (stereo unspecified), the activation is inactive: -31.4%. Next, `N=c1n(CCO)c2ccccc2n1Cc1ccccc1F`: inactive: -14.7%; `COc1ccc(CCNC(=O)c2cc(=O)c3cc(C)cc(C)c3o2)cc1OC`: inactive: 7.8%. As for `O=C(CSc1c2c(nc3ccc(Cl)cc13)CCCC2)NCc1ccccc1Cl`, the activation was inactive: -18.6%. Consider `O=C(OCc1ccco1)c1ccc2c(c1)N(Cc1cccc(F)c1)C(=O)c1ccccc1S2`, for which the activation was inactive: -7.55%. Turning to `CCC(Sc1nc2ccccc2c2nc(CCn3c(C)nc4ccccc43)nn12)C(=O)Nc1ccc(F)cc1` (stereo unspecified), the activation was inactive: -5.33%. `Cc1ccc(-c2cc(C(=O)OCC(=O)c3ccccc3)c3cccc(Cl)c3n2)cc1`: the activation is inactive: 8.06%. The value for `CCOc1ccccc1NC(=O)CC(c1ccc(F)cc1)N1Cc2ccccc2C1=O` (stereo unspecified) was inactive: -19.3%; that for `COc1ccc(Br)c(C(=O)Nc2cc3c(cc2N2CCCC2)n(C)c(=O)c(=O)n3C)c1` was inactive: -3.8%. As to `O=C(Nc1ccc(F)cc1)c1ccc(Cn2nc(N3CCN(c4ccccc4)CC3)ccc2=O)o1`, the activation was inactive: -2%. Take `COC(=O)c1ccc(NC(=O)CCc2c(C)nn(-c3ccc(N4CCOCC4)nn3)c2C)cc1`: the activation is inactive: 0.748%. The value for `COc1ccccc1-c1nc2c(c(SCc3ccc(F)cc3Cl)n1)Cc1c(CO)cnc(C)c1O2` was inactive: 16%; that for `CCOC(=O)c1c(C)[nH]c(C)c1S(=O)(=O)N1CCC(C(=O)N2CCN(c3cccc(C)c3C)CC2)CC1` was inactive: 14.2%. Next, `COc1ccc(CCNc2nc(-c3ccc(Cl)cc3)cc(C(F)(F)F)n2)cc1OC`: inactive: -1.45%; `COc1cccc(-c2cc(C(=O)N3CCN(c4ccccc4OC)CC3)no2)c1`: inactive: -21.2%. For the molecule `COc1ccc(Cl)cc1NC(=O)Cc1coc2c(C)c(C)ccc12`, the activation is inactive: -7.29%. Consider `CCc1ccc(NC(=O)c2sc3nc4c(cc3c2N)CN(CC)CC4)cc1`, for which the activation was inactive: -4.31%. With `Cc1coc2cc3oc(=O)c(CC(=O)N4CCCCC4)c(C)c3cc12`, the activation is inactive: -7.09%. Consider `Cc1cccc(CSc2nc3cc(C(=O)NC4CCCC4)ccc3c(=O)n2Cc2ccccc2)c1`, for which the activation is inactive: -14.3%. Take `NC(=O)c1cccc(N)c1`: the activation is inactive: -4.09%. As to `CCc1cccc(NC(=O)Cn2c(=O)c(C(F)(F)F)nc3ccccc32)c1`, the activation was inactive: 0.499%. For `Cc1ccc(CNS(=O)(=O)c2ccc(-c3cnc(C4CC4)o3)cc2)cc1`, the activation is inactive: -10.2%. For the molecule `CCC(CC)C(=O)Nc1c(C(=O)N2CCN(c3ccccc3)CC2)oc2ccccc12`, the activation was inactive: -30.7%. As to `CCCN(CCC)CC(O)Cn1cc(/C=C/C(=O)c2ccc(OC)cc2)c2ccccc21` (stereo unspecified), the activation was inactive: -4.55%.

Turning to `Cc1cc(C)c2c(=O)cc(C(=O)Nc3nc4ccc(F)cc4s3)oc2c1`, the activation was inactive: 4.58%. For the molecule `CCCCN(CC)CCCNC(=O)c1cc2c(-c3ccc(OC)c(OC)c3)nn(C)c2s1`, the activation was inactive: -6.73%. The value for `CCN(CC)CCNC(=O)Cn1ncc2c([nH]c3ccccc32)c1=O` was inactive: -5.24%; that for `O=C1c2oc3ccc(F)cc3c(=O)c2C(c2cccc([N+](=O)[O-])c2)N1CCCN1CCOCC1` (stereo unspecified) was inactive: -7.87%; that for `Cc1ccc(NC(=O)c2cccn2-c2nnc(N3CCCCC3)s2)cc1Cl` was inactive: -25.7%. On to `Cn1nc(C(=O)N2CCN(c3ccccc3F)CC2)c2c1-c1ccccc1SC2`, for which the activation was inactive: -16.4%.

Regarding `COCCNC(=O)C1CCCN(S(=O)(=O)c2ccc3c(ccn3C)c2)C1` (stereo unspecified), the activation is inactive: 0.419%. On to `O=C(NCc1ccc(F)cc1)c1ccc(NC(=O)N2CC3CCCN3c3ccccc32)cc1` (stereo unspecified), for which the activation is inactive: -16.8%. On to `CCOc1ccc(-c2cnc(NCc3ccc(OC)cc3OC)n2C)cc1`, for which the activation was inactive: -33.3%. Turning to `CC(=O)c1ccc(NC(=O)c2ncn(-c3ccccc3)n2)cc1`, the activation was inactive: -11.5%. Take `COc1ccc(Cl)cc1NC(=O)CCC(=O)c1ccc(C)cc1`: the activation was inactive: 10.8%. Next, `Cc1ccc2nc(N(Cc3cccnc3)C(=O)C3COc4ccccc4O3)sc2c1` (stereo unspecified): inactive: -4.5%; `CCc1ccc(CN(C(=O)c2cc3ccccc3oc2=O)C2CCS(=O)(=O)C2)cc1` (stereo unspecified): inactive: -4.31%. Next, `Cc1ccc(CSc2cn(CC(=O)N3CCCCC3)c3ccccc23)cc1`: inactive: -29.2%; `CCc1c(C)sc2c1CCN(Cc1ccc(F)cc1)C2c1ccccc1` (stereo unspecified): inactive: 6.2%; `COc1ccc(CNC(=O)COCc2cc(-c3cccs3)on2)cc1OC`: inactive: 10.5%. On to `CCCCNC(=O)CCCn1c(=O)c2ccccc2n(Cc2ccccc2C)c1=O`, for which the activation was inactive: -13.1%. Next, `CCn1cc(C(=O)NCCc2ccccc2)c(=O)c2cc(S(=O)(=O)N(C)C3CCCCC3)ccc21`: inactive: -11.1%; `CC(=O)Nc1cccc(C(=O)NCc2ccc3c(c2)CCN3C(C)=O)c1`: inactive: -7.41%.

Turning to `COc1ccc(-c2noc(-c3ccc(NCc4ccccc4OC)c([N+](=O)[O-])c3)n2)cc1`, the activation was inactive: -4.73%. The value for `Cc1ccc(C2=Nc3ccccc3N(CC(=O)Nc3cccc(F)c3)C(=O)C2)cc1C` was inactive: -19.8%. For `CN(C)C(=O)CNC(=O)Cc1ccccc1`, the activation was inactive: 5.87%. As for `CC(=O)c1[nH]c(C)c(C(=O)NCCc2ccc(C)cc2)c1C`, the activation was inactive: -7.34%. As for `O=c1oc2c3c(ccc2c2ccccc12)OCN(Cc1cccc(Cl)c1)C3`, the activation is inactive: -75.9%. Next, `CN(C)CCCNc1oc(/C=C/c2ccc(F)cc2)nc1C#N`: inactive: -31%. `Cc1ccc(NC(=O)CCCn2c(=O)c3cccn3c3cccnc32)c(Cl)c1`: the activation is inactive: -6.39%. The value for `Cc1cc(C)c(NC(=O)CSc2nccn2Cc2ccco2)c(C)c1` was inactive: -12.2%; that for `O=C(CN1CCN(Cc2ccc(Cl)cc2)C1=O)NCc1ccc(F)cc1` was inactive: -11.8%. `Cc1c(CCNC(=O)Cc2ccccc2)sc2nc(-c3ccc(F)cc3)nn12`: the activation is inactive: -21.3%.

For `CCOc1ccccc1N(C)C(=O)C1CCCN(c2ncnc3onc(-c4ccc(F)cc4)c23)C1` (stereo unspecified), the activation was inactive: -12.1%. Next, `Cc1ccc2oc(=O)c3cc(C(=O)N(Cc4ccccc4)C(C)C)sc3c2c1`: inactive: -4.97%; `O=C(CSc1oc(-c2ccco2)nc1S(=O)(=O)c1ccc(Cl)cc1)c1ccc(Cl)cc1`: inactive: -9.38%; `COc1ccc(CNC(=O)CC2N=C3c4ccccc4N=C(SCC(=O)Nc4ccc(N(C)C)cc4)N3C2=O)cc1` (stereo unspecified): inactive: -9.57%. Regarding `Cc1ccc(CN2c3ccccc3S(=O)(=O)c3ccccc32)cc1`, the activation is inactive: -19.4%.
